Test results as given in PubChem BioAssay AID2147 (National Center for Advancing Translational Sciences (NCATS), 2009).
Where “and” joins values, the source holds several entries; their conditions need not be identical. Identical values can stand only once. Hit rate of the full screen: of about 230,000 compounds, about 3,600 (1.6%) were called active. The shares of active, inactive and inconclusive entries below differ from those in the screen. Calls come from the whole dose curve; as a rule, active = well fitted inhibition curve with a large enough effect (not every such curve was filed as active); inconclusive = small, poorly fitted or top-dose-only effect, or another doubt; inactive = no such curve, though single readings can be large or run the other way. Potencies beside an inconclusive call are fits to weak or partial responses and may not hold up.

The molecules below were run against Lysine-specific demethylase 4E (Homo sapiens) (UniProt B2RXH2) (assay: qHTS Assay for Inhibitors of Human Jumonji Domain Containing 2E (JMJD2E)). Settings: JMJD2E catalytic domain, FDH-coupled NADH fluorescence (FDH is formaldehyde dehydrogenase); series mostly up to 57.1 µM; activity change, negative = inhibition: at the top concentration.
Chain of UniProt B2RXH2 (B2RXH2 whole entry, looked up, the tested form may be a part): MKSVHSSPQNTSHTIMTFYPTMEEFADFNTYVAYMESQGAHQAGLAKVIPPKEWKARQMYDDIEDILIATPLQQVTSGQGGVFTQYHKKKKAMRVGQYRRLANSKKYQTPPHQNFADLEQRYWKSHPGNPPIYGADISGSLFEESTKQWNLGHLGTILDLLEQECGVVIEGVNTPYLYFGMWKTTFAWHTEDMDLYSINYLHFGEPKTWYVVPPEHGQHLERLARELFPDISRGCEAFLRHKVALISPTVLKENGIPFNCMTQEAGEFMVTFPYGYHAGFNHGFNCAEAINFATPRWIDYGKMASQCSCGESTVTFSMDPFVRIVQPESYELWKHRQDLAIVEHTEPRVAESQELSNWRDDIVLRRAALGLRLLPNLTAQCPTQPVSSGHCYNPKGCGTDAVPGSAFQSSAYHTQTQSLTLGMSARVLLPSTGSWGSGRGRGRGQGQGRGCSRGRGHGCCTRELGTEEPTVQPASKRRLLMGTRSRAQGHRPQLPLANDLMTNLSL
Note: nearly all actives have a fitted effect of over 50% in size.
Potency is the fitted concentration of half-maximal effect; tags give direction and shape of the fitted curve.
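Throughout, for activity change, negative = inhibition: 0% = wells with enzyme and -100% = buffer wells without enzyme.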

**Q.** `Cc1c(Cl)cccc1N1CC(C)(C)C1=O` was tested. Which “activity change, negative = inhibition” value did it give?
**A.** The value was inactive: 5.38%.

**Q.** With `COc1ccccc1NC(=S)N(Cc1ccco1)Cc1cc2cc(C)ccc2[nH]c1=O` as the molecule, how does the Potency read?
**A.** Its Potency is inconclusive: 28.2 µM [inhibitor, single point].

**Q.** With `CCOC(=O)c1c(C)[nH]c(C(=O)NNC(=O)c2ccccc2)c1C` as the molecule, how does the Potency read?
**A.** Its Potency is inconclusive: 39.8 µM [inhibitor, single point].

**Q.** `Cn1cc(C(=O)N/N=C/c2cc(Br)cs2)c2ccccc21` was tested. Which Potency did it give?
**A.** Its Potency is inconclusive: 35.5 µM [inhibitor, single point].

**Q.** `Cc1ccc(S(=O)(=O)NCCCCCC(=O)Nc2c(C)n(C)n(-c3ccccc3)c2=O)cc1` was tested. Which “activity change, negative = inhibition” value did it give?
**A.** The value was inactive: -5.5%.

**Q.** Which Potency does the source give for `O=C(COc1ccccc1)Nc1nnc(-c2ccc(Cl)s2)o1` here?
**A.** The Potency was inconclusive: 31.6 µM [inhibitor, partial curve].

**Q.** `CCOC(=O)c1ccc(COC(=O)c2cc(=O)[nH]c3ccccc23)o1` was tested. Which Potency did it give?
**A.** The Potency was inconclusive: 28.2 µM [inhibitor, single point].

**Q.** For `O=C1C=C(O)c2ccccc2C1=O`, which Potency is on record?
**A.** The Potency was inconclusive: 25.1 µM [inhibitor, single point] and inconclusive: 31.6 µM [inhibitor, single point].

**Q.** Which Potency does the source give for `CCN1CCN(c2cc3nc(C)n(Cc4ccccc4)c(=O)c3cc2NC(=O)c2ccccc2F)CC1` here?
**A.** The Potency was inconclusive: 10 µM [inhibitor, partial curve].

**Q.** With `Oc1ccccc1N=Nc1ccccc1O` as the molecule, how does the Potency read?
**A.** Its Potency is active: 31.6 µM.

**Q.** How did the “activity change, negative = inhibition” value turn out when `O=[N+]([O-])c1cccc(S(=O)(=O)c2cccc([N+](=O)[O-])c2)c1` was run?
**A.** The value was inactive: 4.07%.

**Q.** For `COc1ccccc1NC(=O)c1cnc(Nc2ccccc2OC)c2ccccc12`, which Potency is on record?
**A.** Its Potency is inconclusive: 35.5 µM [inhibitor, partial curve].

**Q.** Which Potency does the source give for `O=C(c1ccco1)c1cc2c(ccc3ccccc32)oc1=O` here?
**A.** Its Potency is inconclusive: 31.6 µM [inhibitor, single point].

**Q.** `COC(=O)c1sccc1NC(=O)CSCC(=O)O` was tested. Which “activity change, negative = inhibition” value did it give?
**A.** The value was inactive: 11.1%.

**Q.** Which Potency does the source give for `Cc1ccc(-c2cc3nc(C)cc(C)n3n2)cc1` here?
**A.** The Potency was inconclusive: 28.2 µM [inhibitor, partial curve].

**Q.** How did the “activity change, negative = inhibition” value turn out when `Cc1ccc(N=C2NC(=O)/C(=C\c3ccsc3)S2)c(C)c1` was run?
**A.** The value was inactive: 4.26%.

**Q.** How did the Potency turn out when `COCCn1c(=O)[nH]c2cc(C(=O)NCCN3CCN(c4ccccc4F)CC3)ccc2c1=O` was run?
**A.** The Potency was inconclusive: 35.5 µM [inhibitor, single point].

**Q.** With `O=C(O)c1ncsc1-c1ccccc1` as the molecule, how does the Potency read?
**A.** The Potency was inconclusive: 39.8 µM [inhibitor, single point].

**Q.** Which Potency does the source give for `Cc1cc(NCCN2CCOCC2)n2ncc(-c3ccccc3)c2n1` here?
**A.** The Potency was inconclusive: 35.5 µM [inhibitor, single point].

**Q.** For `COc1ccc(-c2cc(C(F)F)n3ncc(C(=O)Nc4ccc(C(=O)N5CCOCC5)cc4)c3n2)cc1`, which Potency is on record?
**A.** The Potency was inconclusive: 22.4 µM [inhibitor, single point].

**Q.** Which “activity change, negative = inhibition” value does the source give for `O=C(CCn1c(=O)c2ccccc2n(Cc2ccccc2)c1=O)NCc1ccc2c(c1)OCO2` here?
**A.** The value was inactive: 5.86%.

**Q.** `Cc1cc(C(=O)N/N=C/c2cc([N+](=O)[O-])ccc2O)c2ccccc2n1` was tested. Which Potency did it give?
**A.** Its Potency is active: 28.2 µM.

**Q.** For `CCN1CCN(c2cc(C)c3cc(NC(=S)N4CCN(c5ccccc5F)CC4)ccc3n2)CC1`, which Potency is on record?
**A.** The Potency was inconclusive: 14.1 µM [inhibitor, partial curve].

**Q.** With `CCOC(=O)C(C)n1nc(C)c2sc3ccccc3c2c1=O` (stereo unspecified) as the molecule, how does the Potency read?
**A.** The Potency was inconclusive: 25.1 µM [inhibitor, partial curve].

**Q.** With `O=C(Nc1ccc(Cc2ccncc2)cc1)c1cccc([N+](=O)[O-])c1` as the molecule, how does the “activity change, negative = inhibition” value read?
**A.** Its value is inactive: -3.13%.

**Q.** `COc1ccc(C(=O)/C=C/C(=O)N(CC(=O)NC2CCCCC2)Cc2ccccc2)c(O)c1` was tested. Which “activity change, negative = inhibition” value did it give?
**A.** The value was inactive: -0.817%.

**Q.** Which Potency does the source give for `O=[N+]([O-])c1cccc(-c2n[nH]c(=S)n2-c2ccc(Br)cc2)c1` here?
**A.** The Potency was inconclusive: 35.5 µM [inhibitor, single point].

**Q.** How did the Potency turn out when `COc1ccc(CSCC(=O)N/N=C/c2ccccc2O)cc1` was run?
**A.** The Potency was active: 31.6 µM.

**Q.** With `CC(C)=CCC1=C(O)[C@](O)(CC=C(C)C)C(=O)C(C(=O)CC(C)C)=C1O` as the molecule, how does the Potency read?
**A.** The Potency was inconclusive: 39.8 µM [inhibitor, single point].

**Q.** Which “activity change, negative = inhibition” value does the source give for `CC(=O)Nc1ccc(OC(F)(F)C(F)F)c(NC(C)=O)c1` here?
**A.** The value was inactive: 1.85%.

**Q.** `O=C(NC(=S)NNC(=O)c1ccccc1[N+](=O)[O-])c1ccccc1` was tested. Which Potency did it give?
**A.** The Potency was inconclusive: 35.5 µM [inhibitor, single point].

**Q.** Which Potency does the source give for `Cc1[nH]n(-c2ccccc2)c(=S)c1C=Nc1ccc([N+](=O)[O-])cc1` here?
**A.** The Potency was active: 6.31 µM.

**Q.** With `O=C(Nc1ccc2c(c1)OCO2)C1CC(=O)N(c2ccc3c(c2)OCCO3)C1` (stereo unspecified) as the molecule, how does the “activity change, negative = inhibition” value read?
**A.** The value was inactive: -2.94%.

**Q.** How did the “activity change, negative = inhibition” value turn out when `CCOc1cc(C)cc2oc(=O)cc(-c3ccccc3)c12` was run?
**A.** Its value is inactive: -26.4%.

**Q.** How did the Potency turn out when `Cc1sc(-c2ccncc2)nc1OC(=O)c1ccccc1` was run?
**A.** Its Potency is inconclusive: 31.6 µM [inhibitor, single point].

**Q.** `O=C(CCCN1C(=O)c2cccc3cccc(c23)C1=O)N1CCN(c2ccccc2)CC1` was tested. Which Potency did it give?
**A.** The Potency was inconclusive: 8.91 µM [inhibitor, single point].

**Q.** With `CC1CCCCN1C(=O)c1ccc(COc2ccc([N+](=O)[O-])cc2)o1` (stereo unspecified) as the molecule, how does the “activity change, negative = inhibition” value read?
**A.** The value was inactive: -3.14%.

**Q.** `CCOC(=O)c1sc(=NC(=O)c2cc(OC)c(OC)c(OC)c2)n(C)c1C` was tested. Which Potency did it give?
**A.** The Potency was inconclusive: 3.16 µM [inhibitor, partial curve].

**Q.** Which Potency does the source give for `COC(=O)C1=CN(CC2CCCO2)C=C(C(=O)OC)C1c1ccccc1C(F)(F)F` (stereo unspecified) here?
**A.** The Potency was inconclusive: 31.6 µM [inhibitor, partial curve].

**Q.** With `CC1=C(C(=O)OC(C)C)C(C)C(C(=O)OC(C)C)=C(C)N1` as the molecule, how does the Potency read?
**A.** Its Potency is inconclusive: 28.2 µM [inhibitor, single point].

**Q.** `O=C(O)c1ccc(Cn2c(SCc3cc(=O)n4cc(Br)ccc4n3)nc3ccsc3c2=O)cc1` was tested. Which “activity change, negative = inhibition” value did it give?
**A.** Its value is inactive: 4.45%.

**Q.** How did the Potency turn out when `Cc1cc2cc(CCNC(=O)c3cccs3)c(=O)[nH]c2cc1C` was run?
**A.** Its Potency is inconclusive: 35.5 µM [inhibitor, single point].

**Q.** With `CN(C)C(=S)Nc1cccc(-c2n[nH]c(=S)o2)c1` as the molecule, how does the Potency read?
**A.** The Potency was inconclusive: 28.2 µM [inhibitor, partial curve].

**Q.** With `Cc1cc(C)c2c(n1)nn1c(NCCOCCO)cc(C)nc21` as the molecule, how does the Potency read?
**A.** Its Potency is inconclusive: 28.2 µM [inhibitor, partial curve].

**Q.** Which “activity change, negative = inhibition” value does the source give for `c1ccc2nc3c(nc2c1)c1ccccc1n3CCN1CCOCC1` here?
**A.** The value was inactive: 0.79%.

**Q.** How did the “activity change, negative = inhibition” value turn out when `O=C(CSc1nc2ccc([N+](=O)[O-])cc2s1)c1ccc2ccccc2c1` was run?
**A.** Its value is inactive: 3.51%.
